{
  "source": "the antibiotic and cytotoxicity screens of Wong et al. (2023)",
  "note": "Some of the results follow.",
  "data": [
    {"system": "HSkMC (human skeletal muscle cells)", "assay": "cytotoxicity call (relative viability < 0.9)", "settings": "10 µM", "values": [
      {"smiles": "COc1ccc(C#Cc2ccc3c(c2)[C@]2(C(=O)N3)[C@H](C(=O)O)[C@H]3C(=O)O[C@H](c4ccccc4)[C@H](c4ccccc4)N3[C@@H]2c2ccc(O)cc2)cc1", "cytotoxicity call": "inactive"},
      {"smiles": "C[C@H]1CN([C@@H](C)CO)C(=O)c2cc(NC(=O)CCN3CCOCC3)ccc2O[C@H]1CN(C)Cc1ccc2c(c1)OCO2", "cytotoxicity call": "inactive"},
      {"smiles": "Cc1noc(C)c1NC(=O)N(C)C[C@@H]1OCCCC[C@@H](C)Oc2ccc(NC(=O)Nc3ccccc3)cc2C(=O)N([C@H](C)CO)C[C@H]1C", "cytotoxicity call": "inactive"},
      {"smiles": "CN(C)c1nc(N(C)C)nc(N(C)C)n1", "cytotoxicity call": "inactive"},
      {"smiles": "COCOc1ccc2cc(Br)ccc2c1-c1c(OCOC)ccc2cc(Br)ccc12", "cytotoxicity call": "active"},
      {"smiles": "COc1ccc(S(=O)(=O)N(C)C[C@H]2OCCCC[C@H](C)Oc3ccc(NC(=O)Nc4ccc(F)cc4)cc3C(=O)N([C@H](C)CO)C[C@@H]2C)cc1", "cytotoxicity call": "inactive"},
      {"smiles": "Cn1cnc(S(=O)(=O)N[C@H]2C=C[C@@H](CC(=O)N3CCN(c4ccccc4)CC3)O[C@@H]2CO)c1", "cytotoxicity call": "inactive"},
      {"smiles": "C[C@@H]1CN([C@@H](C)CO)C(=O)c2cc(NC(=O)c3ccncc3)ccc2O[C@@H](C)CCCCO[C@H]1CN(C)C(=O)Nc1ccc(F)cc1", "cytotoxicity call": "inactive"},
      {"smiles": "CC(C)(C)OC(=O)CC[C@@]12N=C(c3ccc(OCCCO)cc3)O[C@@H]1c1ccccc1CN(C(=O)c1ccccc1)C2=O", "cytotoxicity call": "inactive"},
      {"smiles": "C[C@@H]1CN([C@@H](C)CO)S(=O)(=O)c2ccc(C#Cc3ccccc3)cc2O[C@H]1CN(C)S(=O)(=O)c1cn(C)cn1", "cytotoxicity call": "inactive"},
      {"smiles": "C[C@@H]1CN([C@H](C)CO)C(=O)CCCn2cc(nn2)CO[C@H]1CN(C)S(=O)(=O)c1ccc(Oc2ccccc2)cc1", "cytotoxicity call": "inactive"},
      {"smiles": "C[C@@H]1CN([C@H](C)CO)S(=O)(=O)c2ccc(C#CCN(C)C)cc2O[C@@H]1CN(C)S(=O)(=O)c1cccc(F)c1", "cytotoxicity call": "inactive"},
      {"smiles": "C[C@@H]1CN([C@H](C)CO)C(=O)c2cccc(NS(=O)(=O)c3cn(C)cn3)c2O[C@@H]1CN(C)C(=O)Nc1ccccc1", "cytotoxicity call": "inactive"},
      {"smiles": "COCC#Cc1ccc2c(c1)O[C@H](CN(C)S(=O)(=O)c1ccc(C)cc1)[C@H](C)CN([C@H](C)CO)S2(=O)=O", "cytotoxicity call": "inactive"},
      {"smiles": "COc1cccc(NC(=O)N(C)C[C@@H]2Oc3ncc(C#Cc4ccncc4)cc3C(=O)N([C@@H](C)CO)C[C@H]2C)c1", "cytotoxicity call": "inactive"},
      {"smiles": "Cc1cnc(C(=O)NCCc2ccc(S(=O)(=O)NC(=O)NC3CCCCC3)cc2)cn1", "cytotoxicity call": "inactive"},
      {"smiles": "COC(=O)[C@H]1CCCC[C@@H]1CN", "cytotoxicity call": "inactive"},
      {"smiles": "COC(=O)C1=C2CC[C@H](CO)NC(=O)N[C@H](Cc3ccccc3)C(=O)NCc3cn(nn3)C[C@H](Cc3ccccc3)NC(=O)c3oc(c(C(=O)OC)c3C(=O)OC)CC[C@H](CO)NC(=O)N[C@H](Cc3ccccc3)C(=O)NCc3cn(nn3)C[C@H](Cc3ccccc3)NC(=O)C(=C1C(=O)OC)O2", "cytotoxicity call": "inactive"},
      {"smiles": "C[C@@H]1CCCCO[C@H](CN(C)Cc2ccc(C(F)(F)F)cc2)[C@@H](C)CN([C@H](C)CO)C(=O)c2cc(NC(=O)C3CCCCC3)ccc2O1", "cytotoxicity call": "inactive"},
      {"smiles": "O=C(C[C@H]1C=C[C@@H](NS(=O)(=O)c2ccccc2F)[C@@H](CO)O1)NCCCN1CCOCC1", "cytotoxicity call": "inactive"},
      {"smiles": "C[C@@H]1CN([C@@H](C)CO)C(=O)c2cc(NC(=O)Nc3ccc(C(F)(F)F)cc3)ccc2O[C@@H](C)CCCCO[C@@H]1CN(C)CC1CCCCC1", "cytotoxicity call": "inactive"},
      {"smiles": "CN1C(=O)c2cc(NC(=O)Cc3cccs3)ccc2OC[C@H]2O[C@H](CC(=O)NCc3ccc(-c4ccccc4)cc3)CC[C@H]21", "cytotoxicity call": "inactive"},
      {"smiles": "NC(=O)NCC#Cc1ccc2c(c1)[C@]1(C(=O)N2)[C@H](C(N)=O)[C@H]2C(=O)O[C@H](c3ccccc3)[C@H](c3ccccc3)N2[C@@H]1c1ccc(OCCO)cc1", "cytotoxicity call": "inactive"},
      {"smiles": "COc1ccc(S(=O)(=O)Nc2cccc3c2O[C@@H](CN(C)S(=O)(=O)c2ccccc2)[C@@H](C)CN([C@H](C)CO)C3=O)cc1", "cytotoxicity call": "inactive"},
      {"smiles": "CN1C(=O)c2cc(NC(=O)C3CCOCC3)ccc2OC[C@H]2O[C@H](CC(=O)NCc3ccccc3F)CC[C@@H]21", "cytotoxicity call": "inactive"},
      {"smiles": "C[C@@H]1CN([C@@H](C)CO)C(=O)c2cc(NC(=O)c3ccccc3)ccc2O[C@@H](C)CCCCO[C@@H]1CN(C)S(=O)(=O)c1ccccc1", "cytotoxicity call": "inactive"},
      {"smiles": "C[C@H]1CN([C@@H](C)CO)C(=O)c2cc(C#Cc3ccc(F)cc3)cnc2O[C@@H]1CN(C)Cc1ccccn1", "cytotoxicity call": "inactive"},
      {"smiles": "CC=Cc1ccc2n(c1=O)C[C@@H]1[C@@H](CO)[C@H](C(=O)NC3CCC3)[C@H]2N1S(=O)(=O)c1cn(C)cn1", "cytotoxicity call": "inactive"}
    ]}
  ]
}
